# Hit rate of the full screen: of about 220,000 compounds, about 5,700 (2.6%) were called active. This list was built around the results that the source calls inconclusive (neither active nor inactive); the mix of calls is not that of the screen. Calls come from the whole dose curve; as a rule, active = well fitted inhibition curve with a large enough effect; inconclusive = small, poorly fitted or top-dose-only effect; inactive = no such curve, though single readings can be large or run the other way. Where the call is inconclusive, the potency comes from a doubtful curve fit.
# Target: Lysine-specific demethylase 5B (Homo sapiens) (UniProt Q9UGL1)
# Assay: Primary screen for KDM5B Histone Demethylases FDH-coupled qHTS; note: nearly all actives have a fitted effect of over 70% in size; for activity change, negative = inhibition: 0% is about no effect
# Conditions: FDH-coupled NADH fluorescence (FDH is formaldehyde dehydrogenase); activity change, negative = inhibition: at 57.7 µM (top of the series) unless noted
# Procedure, shortened: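 qHTS format, multiple compound concentrations. Buffer 50 mM HEPES pH 7.5/0.01% Tween-20; 200 nM KDM5BΔAP final; 10 min compound preincubation; substrate-mix levels 12.5 µM peptide, 25 µM α-KG, 0.25 mM NAD⁺; 30 min RT; ΔRFU.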
# Potency is the fitted concentration of half-maximal effect; tags give direction and shape of the fitted curve.
# Chain of UniProt Q9UGL1 (Q9UGL1 whole entry, looked up): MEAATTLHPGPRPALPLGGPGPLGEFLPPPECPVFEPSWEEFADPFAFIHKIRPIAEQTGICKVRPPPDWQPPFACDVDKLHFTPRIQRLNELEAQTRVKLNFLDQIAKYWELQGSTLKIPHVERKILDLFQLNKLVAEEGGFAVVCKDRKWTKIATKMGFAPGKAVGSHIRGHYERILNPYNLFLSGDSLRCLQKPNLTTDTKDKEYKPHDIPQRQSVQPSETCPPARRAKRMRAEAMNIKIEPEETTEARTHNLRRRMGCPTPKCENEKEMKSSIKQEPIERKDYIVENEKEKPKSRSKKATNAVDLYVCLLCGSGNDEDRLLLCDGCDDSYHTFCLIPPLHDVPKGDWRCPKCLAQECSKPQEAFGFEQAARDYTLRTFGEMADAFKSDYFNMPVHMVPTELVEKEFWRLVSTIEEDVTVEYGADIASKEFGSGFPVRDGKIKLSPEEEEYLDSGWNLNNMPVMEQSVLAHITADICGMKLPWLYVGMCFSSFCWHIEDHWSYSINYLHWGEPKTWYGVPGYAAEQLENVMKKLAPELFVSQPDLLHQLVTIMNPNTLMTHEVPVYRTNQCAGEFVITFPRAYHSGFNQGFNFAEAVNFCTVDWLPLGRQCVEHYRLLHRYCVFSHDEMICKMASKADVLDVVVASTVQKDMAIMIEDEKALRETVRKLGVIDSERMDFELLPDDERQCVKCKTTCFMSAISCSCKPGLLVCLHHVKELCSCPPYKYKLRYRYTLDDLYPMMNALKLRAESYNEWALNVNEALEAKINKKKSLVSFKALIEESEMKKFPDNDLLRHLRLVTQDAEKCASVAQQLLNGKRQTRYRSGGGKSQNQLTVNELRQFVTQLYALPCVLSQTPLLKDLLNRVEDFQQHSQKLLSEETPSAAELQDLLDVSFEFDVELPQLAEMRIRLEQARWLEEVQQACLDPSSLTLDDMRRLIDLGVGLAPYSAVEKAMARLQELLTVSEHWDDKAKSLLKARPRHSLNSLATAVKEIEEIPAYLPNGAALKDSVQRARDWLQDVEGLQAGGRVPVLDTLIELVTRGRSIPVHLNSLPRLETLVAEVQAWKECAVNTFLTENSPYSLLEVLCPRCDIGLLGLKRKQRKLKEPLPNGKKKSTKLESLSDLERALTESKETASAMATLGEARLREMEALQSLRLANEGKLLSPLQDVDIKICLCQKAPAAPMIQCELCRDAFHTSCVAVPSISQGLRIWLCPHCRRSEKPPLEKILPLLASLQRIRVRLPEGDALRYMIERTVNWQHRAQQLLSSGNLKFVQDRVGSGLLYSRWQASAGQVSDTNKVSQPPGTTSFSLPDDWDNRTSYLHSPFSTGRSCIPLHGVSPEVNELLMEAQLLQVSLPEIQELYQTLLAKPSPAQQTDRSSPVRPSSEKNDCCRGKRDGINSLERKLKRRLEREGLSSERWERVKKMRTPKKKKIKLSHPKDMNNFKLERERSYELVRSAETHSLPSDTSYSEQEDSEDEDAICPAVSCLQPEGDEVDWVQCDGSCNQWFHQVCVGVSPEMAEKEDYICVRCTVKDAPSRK
SMILES,"activity change, negative = inhibition",Potency
OCC1CN(Cc2cc(Br)ccc2F)CC12CCNCC2 (stereo not given),inactive: -13.9%,
COc1cccc(N2C(=O)c3ccccc3NC2c2cn(C)c(=O)n(C)c2=O)c1 (stereo not given),inactive: -9.55%,
Cc1ccc(C(=O)NNC(=O)COC(=O)c2ccccc2SCc2ccc(C#N)cc2)cc1,inactive: 14.9%,
CC(C)Oc1ccc(C(=O)Nc2ccc(Oc3ccc(Cl)cc3)cc2)cc1,inactive: -3.3%,
CCOc1ccccc1CNC(=O)CCCN1C(=O)COc2ccc(C)cc21,inconclusive: -31% [inhibitor],
COc1ccc(C(=O)N2CCN(c3nc4ncccc4o3)CC2)cc1,,"inconclusive: 35.5 µM [inhibitor, partial curve, poor fit]"
CCN1c2cc(C(=O)Nc3ccc(C(=O)OC)cc3)ccc2C(=O)N2CCCCCC21 (stereo not given),,"inconclusive: 25.1 µM [inhibitor, partial curve, poor fit]"
Oc1ccccc1/C=N/NC(=S)NCCc1ccccc1,,"inconclusive: 14.1 µM [inhibitor, partial curve, poor fit]"
C=CCNC(=O)N1CC[C@@H](CC(=O)O)[C@@H](CC2=NCCc3ccc(C)cc32)C1,inactive: -15.8% [at 86.2 µM],
Cc1ccc(-c2cc(C(=O)Nc3nn[nH]n3)c3ccccc3n2)c(C)c1,,"inconclusive: 35.5 µM [inhibitor, partial curve, poor fit]"
O=C(NCc1ccncc1)C1Cn2cccc2C(=O)N1Cc1ccccc1 (stereo not given),inactive: -38.6%,
COc1ccc(C2Cn3nnc(-c4nc(-c5cccc(Cl)c5)no4)c3CO2)cc1 (stereo not given),,"inconclusive: 25.1 µM [inhibitor, single point]"
COc1ccc(N2C(=O)CSC23CCN(C(=O)c2cccc(OC)c2)CC3)cc1,inactive: 11.1%,
O=C(Cc1noc(C(=O)NCc2ccncc2)n1)Nc1cccc2ncccc12,,"inconclusive: 39.8 µM [inhibitor, single point]"
O=C(c1nc(-c2ccc(F)cc2)c2ccccn12)N1CCN(c2ncccn2)CC1,,active: 28.2 µM
O=C(O)Cc1sc(Nc2ccc(C(=O)O)cc2)nc1-c1ccccc1,,"inconclusive: 35.5 µM [inhibitor, single point]"
CCN1CCc2c(sc(NC(=O)Nc3ccc(Cl)c(Cl)c3)c2C(N)=O)C1,,"inconclusive: 25.1 µM [inhibitor, partial curve, poor fit]"
O=S(=O)(NC1CCN(S(=O)(=O)c2ccc(Br)cc2)CC1)c1cccs1,inactive: -4.29%,
CCCc1cc(=S)n2c([nH]c3ccccc32)c1C#N,,"inconclusive: 39.8 µM [inhibitor, single point]"
N#Cc1ccc(NC(=O)COc2ccc3cc(Br)ccc3c2)cc1,inactive: 4.74%,
Cc1ccc2c(=O)cc(C(=O)Nc3nonc3-c3ccc4c(c3)CCCC4)oc2c1,,"inconclusive: 39.8 µM [inhibitor, single point]"
O=C(c1cccs1)c1cn(CCOc2ccc(F)cc2)c2ccccc12,,"inconclusive: 1.41 µM [inhibitor, partial curve, poor fit]"
CCc1ccccc1NC(=O)c1cc2sc(Cl)cc2n1CC,,"inconclusive: 35.5 µM [inhibitor, single point]"
Cc1[nH]c2ccccc2c1C(c1ccncc1)c1c(C)[nH]c2ccccc12,,"inconclusive: 39.8 µM [inhibitor, single point]"

SMILES,"activity change, negative = inhibition",Potency
CC(=O)Nc1ccc(S(=O)(=O)Nc2c(NC3CCCC3)c3ccccc3oc2=O)cc1,inactive: 13.6%,
O=C(NC1CCN(c2cc(-c3ccc(F)cc3)[nH]n2)C1)c1ccccc1 (stereo not given),,"inconclusive: 7.08 µM [inhibitor, partial curve]"
COc1ccc(-c2nc(C#N)c(NCC(c3cccs3)N(C)C)o2)cc1 (stereo not given),,"inconclusive: 3.98 µM [inhibitor, full curve, poor fit]"
CC1(C)CC(=O)c2cc(C#N)c(SCC(N)=O)nc2C1,inactive: 14.6%,
COc1ccccc1N=C1NN=C(c2ccc3c(c2)CC(C)N3S(C)(=O)=O)CS1 (stereo not given),inactive: -1.2%,
CCN(c1ccc2sc(C(=O)NCCC(C)C)cc2c1)S(C)(=O)=O,inactive: 1.74%,
CC1=C(C(=O)Nc2ccc(C)cc2Cl)C2(CCCCC2)OC1=O,inconclusive: -39.5% [inhibitor],
CN(CC1CCN(CCc2cccc(F)c2)CC1)C(=O)c1cn2cccnc2n1,,active: 28.2 µM
CC(C)CNC(=O)c1nc(-c2ccc(Cl)cc2)c2cnccn12,,"inconclusive: 39.8 µM [inhibitor, partial curve, poor fit]"
Cc1ccc(-c2nc(C)c(C(=O)Nc3ccc4c(c3)C(=O)N3CCC[C@H]3C(=O)N4)s2)cc1,,"inconclusive: 39.8 µM [inhibitor, single point]"
O=C(CCc1c[nH]c2ccccc12)NCC(F)(F)F,inactive: 17%,
COc1cc(-c2nc3ccc(Cl)cn3c2Nc2ccc3c(c2)OCO3)ccc1O,,"inconclusive: 28.2 µM [inhibitor, partial curve, poor fit]"
Cc1cc(OCc2ccccc2)ccc1/C(O)=C1/C(=O)C(=O)N(Cc2cccnc2)C1c1ccncc1 (stereo not given),,"inconclusive: 14.1 µM [inhibitor, partial curve, poor fit]"
Cc1ccccc1S(=O)(=O)Cc1ccc(C(=O)NCc2ccccc2Cl)o1,,"inconclusive: 12.6 µM [inhibitor, partial curve, poor fit]"
Nc1nn(-c2ccccc2)nc1C(=O)OCc1ccccc1Br,,"inconclusive: 31.6 µM [inhibitor, partial curve, poor fit]"
CCN1c2cc(C(=O)Nc3ccc(C)c(F)c3)ccc2C(=O)N2CCCCCC21 (stereo not given),,"inconclusive: 28.2 µM [inhibitor, partial curve, poor fit]"
O=C(NC[C@H]1Cn2c(-c3cccc(Cl)c3)cnc2CO1)Nc1ccccc1,inactive: 4.49% [at 86.2 µM],
CCNc1ncnc2c1CN(C1CCCNCC1)C(=O)CN2C (stereo not given),inactive: -28% [at 149 µM],
O=S(=O)(Nc1nc2ccccc2nc1Nc1cccc(F)c1)c1cccc(Cl)c1,inactive: 56.5%,
Cc1oc(-c2nc(C#N)c(N(C)Cc3ccccc3)o2)cc1S(=O)(=O)N1CCOCC1,,"inconclusive: 1.78 µM [inhibitor, partial curve, poor fit]"
COC(=O)[C@H](C(C)C)N(Cc1cn(Cc2ccc(C)cc2)nn1)S(=O)(=O)c1ccccc1Br,inactive: -11.5%,
COc1cc2ccccc2cc1C(=O)Nc1cccc(-c2nc3ccccc3o2)c1,,"inconclusive: 35.5 µM [inhibitor, partial curve, poor fit]"
CC(Oc1ccc2ccc(=O)oc2c1)C(=O)Nc1ccc(C(N)=O)cc1 (stereo not given),,"inconclusive: 28.2 µM [inhibitor, partial curve, poor fit]"
CCc1ccccc1NC(=O)C(=O)NCCc1csc(-c2ccc(C(F)(F)F)cc2)n1,inactive: 7.98%,

SMILES,"activity change, negative = inhibition",Potency
Cc1ccccc1CS(=O)(=O)c1ncc(Cl)c(C(=O)Nc2nnc(C(C)C)s2)n1,,"inconclusive: 25.1 µM [inhibitor, partial curve, poor fit]"
Cc1cc(C)cc(NC(=O)CCc2ncc(-c3ccc(F)cc3F)o2)c1,inactive: 2.64%,
Cc1ccc(F)c(OC2(C(=O)O)CCN(c3cnc4ccccc4n3)CC2)c1,,active: 20 µM
CC(C)CCN1CCCCCCNC(=O)[C@@H]2CCC[C@@H]21,,active: 10 µM
O=C1NCCCCCCN(C(=O)NCc2ccccc2)[C@H]2CCC[C@@H]12,inactive: -23.2%,
COc1ccc2nc([C@H]3CCN(C4CCN(C)CC4)C3)[nH]c2c1,,"inconclusive: 31.6 µM [inhibitor, single point]"
CC(=O)Nc1cccc(-c2ccnc(-c3nnc(C)n3Cc3ccccc3)c2)c1,inactive: 11.8% [at 86.2 µM],
CC(=O)c1cc2c(cc1NC(=O)Cn1c(=O)n(C)c(=O)c3sccc31)OCO2,,"inconclusive: 35.5 µM [inhibitor, single point]"
O=C1C(N2CCN(Cc3ccc[nH]3)CC2)CCN1CCc1ccccc1 (stereo not given),,"inconclusive: 14.1 µM [inhibitor, partial curve]"
CN(C)c1ccc(/C=N/NC(=O)c2cc(-c3ccc4c(c3)OCO4)n[nH]2)cc1,,"inconclusive: 25.1 µM [inhibitor, partial curve, poor fit]"
Cn1nc(C(=O)OCC(=O)NC(C)(C#N)C2CC2)c2ccccc2c1=O (stereo not given),,"inconclusive: 39.8 µM [inhibitor, single point]"
CCCCn1nc(C(=O)NCC(c2ccco2)N2CCCC2)c2ccccc2c1=O (stereo not given),inactive: 5.81%,
CSCCC(NC(=O)c1ccccc1Cl)C(=O)N1CCN(c2ccccn2)CC1 (stereo not given),,"inconclusive: 39.8 µM [inhibitor, single point]"
N#C/C(=C\c1c(Oc2ccc(F)cc2)nc2ccccn2c1=O)c1nc2ccccc2s1,,"inconclusive: 7.08 µM [inhibitor, partial curve, poor fit]"
COc1ccc(CN2CCC[C@H]2c2nc(-c3cncnc3N)no2)c(O)c1,,active: 31.6 µM
CSc1ccc(-c2ccc3c(c2)C(=O)N2CC[C@H](NC(=O)c4cccs4)C[C@H]2C(=O)N3)cc1,,active: 28.2 µM
O=c1c2c(CO)c(-c3ccc(F)cc3)nn2ccn1Cc1ccc(Br)cc1,,"inconclusive: 31.6 µM [inhibitor, single point]"
COC(=O)c1cc2oc(C)cc2n1Cc1ccc(C)cc1,,"inconclusive: 35.5 µM [inhibitor, single point]"
CCCCn1c(=O)[nH]c(=O)c2c1nc(-c1ccc(OC)c(C)c1)n2C,,"inconclusive: 14.1 µM [inhibitor, partial curve, poor fit]"
CN(Cc1ccccc1F)C(C(=O)NC1CC1)c1ccccc1 (stereo not given),inactive: 15.9%,
NC(=O)c1nn(CC(=O)Nc2ccccc2OC(F)(F)F)c(=O)c2ccccc12,inactive: 5.04%,
CCC(=O)OC1=CN(Cc2ccccc2)S(=O)(=O)c2ccccc21,,"inconclusive: 31.6 µM [inhibitor, single point]"
